# According to publication PMC9911399, “Two distinct binding modes provide the RNA-binding protein RbFox with extraordinary sequence specificity”:
# Where a chain is given by its changes, count along the chain named. This is one part of the list.
# T1: RBFOX1 RRM (Homo sapiens, UniProt Q9NWB1 109-208)
# T1 sequence: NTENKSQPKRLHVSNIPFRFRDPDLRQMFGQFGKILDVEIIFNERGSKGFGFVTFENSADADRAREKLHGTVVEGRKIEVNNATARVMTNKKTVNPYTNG
# B1: UUAGUGG (DNA:RNA)
# RNA: GGGAGACCGGAAUUCAGAUUGUCCUUAGUGGUUAAAUCCCGUCGUAGCCACCA
# DNA 1: CAATCTGAATTCCGGTCTCCC
# DNA 2: TGGTGGCTACGACGGGATT
# B2: GACACAC (DNA:RNA)
# RNA: GGGAGACCGGAAUUCAGAUUGUCCGACACACUUAAAUCCCGUCGUAGCCACCA
# DNA 1: CAATCTGAATTCCGGTCTCCC
# DNA 2: TGGTGGCTACGACGGGATT
# B3: AGGGCGU (DNA:RNA)
# RNA: B1 RNA with U25A, U26G, A27G, U29C, G31U
# DNA 1: CAATCTGAATTCCGGTCTCCC
# DNA 2: TGGTGGCTACGACGGGATT
# B4: CAUAGCU (DNA:RNA)
# RNA: B2 RNA with G25C, C27U, C29G, A30C, C31U
# DNA 1: CAATCTGAATTCCGGTCTCCC
# DNA 2: TGGTGGCTACGACGGGATT
# B5: CUUCCUG (DNA:RNA)
# RNA: B1 RNA with U25C, A27U, G28C, U29C, G30U
# DNA 1: CAATCTGAATTCCGGTCTCCC
# DNA 2: TGGTGGCTACGACGGGATT
# B6: GACUUGA (DNA:RNA)
# RNA: B2 RNA with A28U, C29U, A30G, C31A
# DNA 1: CAATCTGAATTCCGGTCTCCC
# DNA 2: TGGTGGCTACGACGGGATT
# B7: UCUUAUG (DNA:RNA)
# RNA: B1 RNA with U26C, A27U, G28U, U29A, G30U
# DNA 1: CAATCTGAATTCCGGTCTCCC
# DNA 2: TGGTGGCTACGACGGGATT
# B8: UGGUUGU (DNA:RNA)
# RNA: B1 RNA with U26G, A27G, G28U, G31U
# DNA 1: CAATCTGAATTCCGGTCTCCC
# DNA 2: TGGTGGCTACGACGGGATT
# B9: GACGAAU (DNA:RNA)
# RNA: B2 RNA with A28G, C29A, C31U
# DNA 1: CAATCTGAATTCCGGTCTCCC
# DNA 2: TGGTGGCTACGACGGGATT
# B10: CUUUAGC (DNA:RNA)
# RNA: B1 RNA with U25C, A27U, G28U, U29A, G31C
# DNA 1: CAATCTGAATTCCGGTCTCCC
# DNA 2: TGGTGGCTACGACGGGATT
# B11: GCGCUGC (DNA:RNA)
# RNA: B2 RNA with A26C, C27G, A28C, C29U, A30G
# DNA 1: CAATCTGAATTCCGGTCTCCC
# DNA 2: TGGTGGCTACGACGGGATT
# B12: UCGCCCA (DNA:RNA)
# RNA: B2 RNA with G25U, A26C, C27G, A28C, A30C, C31A
# DNA 1: CAATCTGAATTCCGGTCTCCC
# DNA 2: TGGTGGCTACGACGGGATT
# B13: GAAGCCU (DNA:RNA)
# RNA: B2 RNA with C27A, A28G, A30C, C31U
# DNA 1: CAATCTGAATTCCGGTCTCCC
# DNA 2: TGGTGGCTACGACGGGATT
# B14: UGACACA (DNA:RNA)
# RNA: B1 RNA with U26G, G28C, U29A, G30C, G31A
# DNA 1: CAATCTGAATTCCGGTCTCCC
# DNA 2: TGGTGGCTACGACGGGATT
# B15: CAUACAA (DNA:RNA)
# RNA: B2 RNA with G25C, C27U, C31A
# DNA 1: CAATCTGAATTCCGGTCTCCC
# DNA 2: TGGTGGCTACGACGGGATT
# B16: CCCCCCU (DNA:RNA)
# RNA: B2 RNA with G25C, A26C, A28C, A30C, C31U
# DNA 1: CAATCTGAATTCCGGTCTCCC
# DNA 2: TGGTGGCTACGACGGGATT
# B17: CAAACUC (DNA:RNA)
# RNA: B2 RNA with G25C, C27A, A30U
# DNA 1: CAATCTGAATTCCGGTCTCCC
# DNA 2: TGGTGGCTACGACGGGATT
# B18: GCUACGA (DNA:RNA)
# RNA: B2 RNA with A26C, C27U, A30G, C31A
# DNA 1: CAATCTGAATTCCGGTCTCCC
# DNA 2: TGGTGGCTACGACGGGATT
# B19: ACUUAAA (DNA:RNA)
# RNA: B2 RNA with G25A, A26C, C27U, A28U, C29A, C31A
# DNA 1: CAATCTGAATTCCGGTCTCCC
# DNA 2: TGGTGGCTACGACGGGATT
# B20: ACCCAGC (DNA:RNA)
# RNA: B2 RNA with G25A, A26C, A28C, C29A, A30G
# DNA 1: CAATCTGAATTCCGGTCTCCC
# DNA 2: TGGTGGCTACGACGGGATT
# B21: GCUGACA (DNA:RNA)
# RNA: B2 RNA with A26C, C27U, A28G, C29A, A30C, C31A
# DNA 1: CAATCTGAATTCCGGTCTCCC
# DNA 2: TGGTGGCTACGACGGGATT
# B22: GACUUCU (DNA:RNA)
# RNA: B2 RNA with A28U, C29U, A30C, C31U
# DNA 1: CAATCTGAATTCCGGTCTCCC
# DNA 2: TGGTGGCTACGACGGGATT
# B23: UGUCCUG (DNA:RNA)
# RNA: B1 RNA with U26G, A27U, G28C, U29C, G30U
# DNA 1: CAATCTGAATTCCGGTCTCCC
# DNA 2: TGGTGGCTACGACGGGATT
# B24: AAACCUU (DNA:RNA)
# RNA: B2 RNA with G25A, C27A, A28C, A30U, C31U
# DNA 1: CAATCTGAATTCCGGTCTCCC
# DNA 2: TGGTGGCTACGACGGGATT
# B25: UGGGAGG (DNA:RNA)
# RNA: B1 RNA with U26G, A27G, U29A
# DNA 1: CAATCTGAATTCCGGTCTCCC
# DNA 2: TGGTGGCTACGACGGGATT
# B26: AUUAUCG (DNA:RNA)
# RNA: B1 RNA with U25A, A27U, G28A, G30C
# DNA 1: CAATCTGAATTCCGGTCTCCC
# DNA 2: TGGTGGCTACGACGGGATT
# B27: GACGCUC (DNA:RNA)
# RNA: B2 RNA with A28G, A30U
# DNA 1: CAATCTGAATTCCGGTCTCCC
# DNA 2: TGGTGGCTACGACGGGATT
# B28: CAGGGUC (DNA:RNA)
# RNA: B2 RNA with G25C, C27G, A28G, C29G, A30U
# DNA 1: CAATCTGAATTCCGGTCTCCC
# DNA 2: TGGTGGCTACGACGGGATT
# B29: CCAGCGG (DNA:RNA)
# RNA: B1 RNA with U25C, U26C, U29C
# DNA 1: CAATCTGAATTCCGGTCTCCC
# DNA 2: TGGTGGCTACGACGGGATT
# B30: GAAUGGA (DNA:RNA)
# RNA: B2 RNA with C27A, A28U, C29G, A30G, C31A
# DNA 1: CAATCTGAATTCCGGTCTCCC
# DNA 2: TGGTGGCTACGACGGGATT
# B31: CGUCCGU (DNA:RNA)
# RNA: B2 RNA with G25C, A26G, C27U, A28C, A30G, C31U
# DNA 1: CAATCTGAATTCCGGTCTCCC
# DNA 2: TGGTGGCTACGACGGGATT
# Target: T1, RBFOX1 RRM
# Test: EMSA; HiTS-Eq, 1 nM pool, 10 min; buffer printed only for the single-RNA assays: 10 mM Tris pH 7.5, 150 mM NaCl, 3.4 mM EDTA, 0.001% NP-40, 30 C
# Settings: tags: His6 N-terminal (pET28a); label: 5' 32P
# Procedure, shortened: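 These values rest on relative association constants, computed from read-count changes of each RNA species versus the control reaction and normalised to the cognate motif. Reads came from free RNA recovered by 8% native PAGE after purified RbFox RRM (wild type or mutant) at increasing concentrations was equilibrated for 10 min in 50 µL with 1 nM of a 5′-radiolabelled pool with 7 randomized nucleotides and DNA-annealed flanks.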
row,Binder,binding signal
1,B1,0.00895 KA relative to UGCAUGU
2,B2,0.00291 KA relative to UGCAUGU
3,B3,0.0222 KA relative to UGCAUGU
4,B4,0.00495 KA relative to UGCAUGU
5,B5,0.0131 KA relative to UGCAUGU
6,B6,0.0187 KA relative to UGCAUGU
7,B7,0.0119 KA relative to UGCAUGU
8,B8,0.0314 KA relative to UGCAUGU
9,B9,0.0126 KA relative to UGCAUGU
10,B10,0.0111 KA relative to UGCAUGU
11,B11,0.0232 KA relative to UGCAUGU
12,B12,0.00298 KA relative to UGCAUGU
13,B13,0.00942 KA relative to UGCAUGU
14,B14,0.00643 KA relative to UGCAUGU
15,B15,0.000734 KA relative to UGCAUGU
16,B16,0.00046 KA relative to UGCAUGU

row,Binder,binding signal
1,B17,0.00115 KA relative to UGCAUGU
2,B18,0.009 KA relative to UGCAUGU
3,B19,0.00202 KA relative to UGCAUGU
4,B20,0.00224 KA relative to UGCAUGU
5,B21,0.0129 KA relative to UGCAUGU
6,B22,0.0118 KA relative to UGCAUGU
7,B23,0.0171 KA relative to UGCAUGU
8,B24,0.00164 KA relative to UGCAUGU
9,B25,0.0271 KA relative to UGCAUGU
10,B26,0.006 KA relative to UGCAUGU
11,B27,0.0143 KA relative to UGCAUGU
12,B28,0.0191 KA relative to UGCAUGU
13,B29,0.00459 KA relative to UGCAUGU
14,B30,0.00719 KA relative to UGCAUGU
15,B31,0.0125 KA relative to UGCAUGU
